The assay addresses GTPase KRas (Homo sapiens) (UniProt P01116). Put plainly: Covalent labelling of cysteine mutants by fragments, read by mass spectrometry (AID 2202238). The conditions noted are these: KRAS G12D cysteine mutants, disulfide tethering, MALDI-TOF labeling, stronger effect = higher value, fragment at 500 µM. Set-up: protein at 5 µM with 500 µM competing thiol for 1.5 h.
[1] abbreviates: measured here: G75C mutant labeling.
Setting [2] is: measured here: H94C mutant labeling.
[3] abbreviates: measured here: I36C mutant labeling.
Where [4] appears, read: measured here: L120C mutant labeling.
[5] abbreviates: measured here: M67C mutant labeling.
The mark [6] stands for this setting: measured here: M72C mutant labeling.
Setting [7] is: measured here: N86C mutant labeling.
Setting [8] is: measured here: P121C mutant labeling.
The mark [9] stands for this setting: measured here: S122C mutant labeling.
[10] abbreviates: measured here: S136C mutant labeling.
The mark [11] stands for this setting: measured here: G60C mutant labeling.
[12] abbreviates: measured here: N26C mutant labeling.

This is an account of results in PubChem BioAssay AID2202238 (Ras Initiative Chemistry Research Team, Frederick National …, 2025).

The structures appear in SMILES notation. This is one part of the list. The main result of the screen is listed elsewhere. These columns were measured beside it and carry no call.

UniProt P01116, sequence (P01116 whole entry, looked up, the tested form may be a part): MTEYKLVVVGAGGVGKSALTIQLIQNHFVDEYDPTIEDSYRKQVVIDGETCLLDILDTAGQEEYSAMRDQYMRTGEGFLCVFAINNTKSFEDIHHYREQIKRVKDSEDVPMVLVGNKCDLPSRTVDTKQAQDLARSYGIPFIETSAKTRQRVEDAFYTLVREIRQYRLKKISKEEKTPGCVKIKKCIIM

For `CN(C)c1cnc(CNC(=O)CCS)cn1`, the percent labeling runs as follows: under setting [1], 10.9%; under setting [2], 23.5%; under setting [3], 31.1%; under setting [4], 25.7%; under setting [5], 29.7%; under setting [6], 21.6%. Moreover, the percent labeling was found to be 18.6% under setting [7], 28.6% under setting [8], 33.7% under setting [9] and 41.2% under setting [10].

For `O=C(CCS)N1CCC(C(O)c2ccc(F)cc2)CC1` (configuration not stated), the percent labeling was 18.3% under setting [1]; 40.4% under setting [2]; 47.3% under setting [3]; 38.8% under setting [4]; 60.1% under setting [5]; 30% under setting [6]. This molecule gave a percent labeling under setting [7] of 29.7%, a percent labeling under setting [8] of 36.5%, a percent labeling under setting [9] of 29.7% and a percent labeling under setting [10] of 64.7%.

Regarding `O=C(NCCS)c1ccccc1OC1CCCC1`, the percent labeling came out at 36.4% under setting [11]; 18.6% under setting [1]; 47% under setting [2]; 16.9% under setting [3]; 13.5% under setting [4]; 18.6% under setting [5]. Also, the percent labeling by setting is: under setting [6], 57.3%; under setting [12], 28.4%; under setting [7], 7.4%; under setting [8], 16.2%; under setting [9], 13.4%; under setting [10], 24.5%.

Turning to `Cc1nn(C2CCN(C(=O)CCS)CC2)c(=O)[nH]1`, the percent labeling under setting [1] was 12.2%; the percent labeling under setting [2] is 28.6%; the percent labeling under setting [3] was 35.8%; the percent labeling under setting [4] was 34.5%; the percent labeling under setting [5] is 38.1%; the percent labeling under setting [6] was 22.1%. Further, the percent labeling turned out to be 27.8% under setting [7], 34.6% under setting [8], 37.5% under setting [9] and 54.1% under setting [10].

In the case of `O=C(NCCS)c1ccc(NC(=O)C2CC2)s1`, the percent labeling runs as follows: under setting [11], 24.8%; under setting [1], 14.6%; under setting [2], 20.2%; under setting [3], 16.1%; under setting [4], 29.1%; under setting [5], 20.6%. Besides, the percent labeling came to 36.2% under setting [6]; 35.5% under setting [12]; 24.1% under setting [7]; 16.2% under setting [8]; 18.2% under setting [9]; 42.2% under setting [10].

`O=C(NCCS)c1cc2ccc(Br)cc2c(=O)o1`: the percent labeling by setting is: under setting [11], 13.8%; under setting [1], 4.8%; under setting [2], 6.9%; under setting [3], 13.8%; under setting [4], 6.4%; under setting [5], 6.8%. Also, the percent labeling is, setting by setting: under setting [6], 26.3%; under setting [12], 26%; under setting [7], 3.8%; under setting [8], 33.3%; under setting [9], 5.3%; under setting [10], 15%.

As to `CC(C)C(NC(=O)CCS)c1nnc2n1CCC2` (configuration not stated), the percent labeling is, setting by setting: under setting [1], 5%; under setting [2], 21.9%; under setting [3], 31.9%; under setting [4], 23.6%; under setting [5], 30.9%; under setting [6], 9.1%. Also, the percent labeling reads like this: under setting [7], 12.2%; under setting [8], 26.2%; under setting [9], 36.6%; under setting [10], 49.3%.

Molecule `CN(C)CCOc1cccc(NC(=O)CCS)c1` showed a percent labeling under setting [1] of 17.7%; a percent labeling under setting [2] of 36.9%; a percent labeling under setting [3] of 55.4%; a percent labeling under setting [4] of 36.8%; a percent labeling under setting [5] of 43.6%; a percent labeling under setting [6] of 36.6%. Also, the percent labeling is 32.3% under setting [7], 30.1% under setting [8], 34% under setting [9] and 49.2% under setting [10].

With `O=C(CCS)Nc1cnn(COc2ccc(Cl)cc2)c1`, the percent labeling under setting [1] is 9.2%; the percent labeling under setting [2] was 15.4%; the percent labeling under setting [3] was 15.2%; the percent labeling under setting [4] was determined as 11.7%; the percent labeling under setting [5] came to 19.4%; the percent labeling under setting [6] was 27.3%. Further, the percent labeling by setting is: under setting [7], 11.5%; under setting [8], 13%; under setting [9], 9.8%; under setting [10], 22.7%.

`O=C(CCS)Nc1ccc(NC(=O)c2ccco2)c(Cl)c1`: the percent labeling runs as follows: under setting [1], 7%; under setting [2], 6.4%; under setting [3], 16.2%; under setting [4], 0%; under setting [5], 9.6%; under setting [6], 32.7%. The percent labeling stood at 3.4% under setting [7], 9.1% under setting [8], 6.4% under setting [9] and 16.9% under setting [10].

Regarding `O=C(NCCS)C(c1cccc(F)c1)N1CCOCC1` (configuration not stated), the percent labeling under setting [11] was found to be 48.4%; the percent labeling under setting [1] turned out to be 24.6%; the percent labeling under setting [2] was determined as 40.5%; the percent labeling under setting [3] is 28.8%; the percent labeling under setting [4] was found to be 48.1%; the percent labeling under setting [5] was found to be 41.9%. In addition, the percent labeling under setting [6] amounted to 26%; the percent labeling under setting [12] was found to be 39.6%; the percent labeling under setting [7] stood at 28.2%; the percent labeling under setting [8] came out at 34.4%; the percent labeling under setting [9] is 35.6%; the percent labeling under setting [10] was found to be 75.9%.

For `CCOc1cccnc1N1CCN(C(=O)CCS)CC1`, the percent labeling reads like this: under setting [1], 15.9%; under setting [2], 31.9%; under setting [3], 35.4%; under setting [4], 29.5%; under setting [5], 45.4%; under setting [6], 22%. This molecule registered a percent labeling under setting [7] of 15.9%, a percent labeling under setting [8] of 34.7%, a percent labeling under setting [9] of 35% and a percent labeling under setting [10] of 64.4%.

For `CC(NC(=O)C12CC3CC(CC(C3)C1)C2)C(=O)NCCS` (configuration not stated), the percent labeling under setting [11] was found to be 39.1%; the percent labeling under setting [1] amounted to 26%; the percent labeling under setting [2] came out at 32.8%; the percent labeling under setting [3] amounted to 21.2%; the percent labeling under setting [4] stood at 52.7%; the percent labeling under setting [5] is 30%. The molecule also yielded a percent labeling under setting [6] of 32.1%; a percent labeling under setting [12] of 34.8%; a percent labeling under setting [7] of 25.6%; a percent labeling under setting [8] of 34.6%; a percent labeling under setting [9] of 30.2%; a percent labeling under setting [10] of 44.8%.

For `O=C(CCS)N1CCN(c2nn3cc(-c4ccc(F)cc4)nc3s2)CC1`, the percent labeling is 16.3% under setting [1]; 9% under setting [2]; 26.6% under setting [3]; 5.2% under setting [4]; 15.7% under setting [5]; 7.8% under setting [6]. Moreover, the percent labeling is 0% under setting [7], 8.2% under setting [8], 4.8% under setting [9] and 32.5% under setting [10].

For `Cc1nn(C)c(Oc2cccnc2)c1NC(=O)CCS`, the percent labeling came out at 8.4% under setting [1]; 29.7% under setting [2]; 39% under setting [3]; 31.2% under setting [4]; 38.2% under setting [5]; 12.8% under setting [6]. The percent labeling is, setting by setting: under setting [7], 12.4%; under setting [8], 33.6%; under setting [9], 30.6%; under setting [10], 51.6%.

`O=C(NCCS)C1CC(O)(c2cccc(Cl)c2)C1` (configuration not stated): the percent labeling is, setting by setting: under setting [11], 45.7%; under setting [1], 19.7%; under setting [2], 29.9%; under setting [3], 28.6%; under setting [4], 38.2%; under setting [5], 32.6%. The percent labeling amounted to 44.2% under setting [6]; 47.1% under setting [12]; 28.6% under setting [7]; 44.1% under setting [8]; 29.5% under setting [9]; 49.6% under setting [10].

For the molecule `Cn1cc(C(=O)NCCS)c(-c2ccc3c(c2)OCCCO3)n1`, the percent labeling came to 41.4% under setting [11]; 22.2% under setting [1]; 39% under setting [2]; 24.5% under setting [3]; 55.2% under setting [4]; 37.4% under setting [5]. For the same molecule, the percent labeling under setting [6] was 42.1%; the percent labeling under setting [12] was found to be 36.8%; the percent labeling under setting [7] came to 17%; the percent labeling under setting [8] turned out to be 27.3%; the percent labeling under setting [9] stood at 25.2%; the percent labeling under setting [10] came out at 41.6%.

Consider `Cc1cc(Br)cc2cc(C(=O)NCCS)oc12`, for which the percent labeling reads like this: under setting [11], 22.8%; under setting [1], 13.1%; under setting [2], 16.6%; under setting [3], 10%; under setting [4], 11.4%; under setting [5], 9.7%. Besides, the percent labeling is, setting by setting: under setting [6], 36.4%; under setting [12], 27.5%; under setting [7], 12.7%; under setting [8], 13.6%; under setting [9], 6%; under setting [10], 15%.

Consider `O=C(Cc1csc(N2CCCC2=O)n1)NCCS`, for which the percent labeling came to 46% under setting [11]; 13.8% under setting [1]; 37.4% under setting [2]; 28.5% under setting [3]; 49.4% under setting [4]; 35.5% under setting [5]. The percent labeling amounted to 23.9% under setting [6]; 41.7% under setting [12]; 24.7% under setting [7]; 33.4% under setting [8]; 33.2% under setting [9]; 42.2% under setting [10].

In the case of `O=C(CCS)N1CCC(c2ncc(-c3ccc(F)c(F)c3)[nH]2)CC1`, the percent labeling is 18.4% under setting [1]; 24.2% under setting [2]; 23.3% under setting [3]; 17.1% under setting [4]; 34.1% under setting [5]; 22.2% under setting [6]. Further, the percent labeling came to 23.2% under setting [7], 17.7% under setting [8], 8.5% under setting [9] and 28.8% under setting [10].

Regarding `COc1ccc2nc(C)c(C(=O)NCCS)n2n1`, the percent labeling is, setting by setting: under setting [11], 37.7%; under setting [1], 31.4%; under setting [2], 50.2%; under setting [3], 20.3%; under setting [4], 27.7%; under setting [5], 47.6%. In addition, the percent labeling reads like this: under setting [6], 58%; under setting [12], 43.1%; under setting [7], 18.2%; under setting [8], 24.3%; under setting [9], 23.5%; under setting [10], 43.8%.

Consider `O=C(CCS)Nc1ccc(-c2n[nH]c3c2COCC3)cc1`, for which the percent labeling reads like this: under setting [1], 7.6%; under setting [2], 20.9%; under setting [3], 31.1%; under setting [4], 14.8%; under setting [5], 18.4%; under setting [6], 42.5%. The percent labeling runs as follows: under setting [7], 17%; under setting [8], 14%; under setting [9], 13%; under setting [10], 29.5%.

On to `O=C(NCCS)C1CCN(S(=O)(=O)c2ccc3[nH]c(=O)sc3c2)CC1`, for which the percent labeling is 33.3% under setting [11]; 14.5% under setting [1]; 17.4% under setting [2]; 19.9% under setting [3]; 17.1% under setting [4]; 18.9% under setting [5]. For the same molecule, the percent labeling worked out at 30.8% under setting [6]; 38.6% under setting [12]; 16.1% under setting [7]; 20.5% under setting [8]; 18.2% under setting [9]; 23.3% under setting [10].
